109 sequences from the supplement of paper PMC3334620 can be followed below.

The full ranking holds about 33,000 sequences; the median of “E-score (-0.5 to 0.5)” is about -0.011, and the highest 2% start at about 0.28. The list shows a part of the results.

In the assay the target is T1, Gcr1 (UniProt P07261).
T1 sequence: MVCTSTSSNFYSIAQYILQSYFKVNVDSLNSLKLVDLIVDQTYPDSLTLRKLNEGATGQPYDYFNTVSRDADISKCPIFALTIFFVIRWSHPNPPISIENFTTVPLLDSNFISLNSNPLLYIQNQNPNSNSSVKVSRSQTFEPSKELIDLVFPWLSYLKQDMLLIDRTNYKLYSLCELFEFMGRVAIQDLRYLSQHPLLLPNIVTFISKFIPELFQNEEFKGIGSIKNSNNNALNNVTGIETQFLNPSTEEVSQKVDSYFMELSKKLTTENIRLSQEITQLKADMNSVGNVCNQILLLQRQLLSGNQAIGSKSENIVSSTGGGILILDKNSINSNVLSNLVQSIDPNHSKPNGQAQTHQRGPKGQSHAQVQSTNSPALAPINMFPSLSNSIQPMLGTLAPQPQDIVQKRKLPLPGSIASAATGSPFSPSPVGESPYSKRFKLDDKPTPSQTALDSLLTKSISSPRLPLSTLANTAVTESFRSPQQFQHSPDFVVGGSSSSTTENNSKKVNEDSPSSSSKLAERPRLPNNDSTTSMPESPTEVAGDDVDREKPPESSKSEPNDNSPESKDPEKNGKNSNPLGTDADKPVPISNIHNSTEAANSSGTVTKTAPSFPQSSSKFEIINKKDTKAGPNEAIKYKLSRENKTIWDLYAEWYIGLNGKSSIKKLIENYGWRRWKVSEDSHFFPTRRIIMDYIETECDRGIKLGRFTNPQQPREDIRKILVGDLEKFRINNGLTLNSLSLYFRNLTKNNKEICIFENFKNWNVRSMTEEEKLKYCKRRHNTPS
The assay can be described thus: PBM E-score (8-mer binding enrichment) (E-score (-0.5 to 0.5)); higher = stronger / more preferred TF binding; most listed sequences are background and not binding sites. The settings on record: protein concentration: 100 nM; construct: GST-full length. In short, it runs like this: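 Masliner-normalised scans of fluorescent anti-GST signal were the basis for scoring. That signal came from GST-tagged yeast transcription factors applied at about 100-200 nM to double-stranded universal all-10-mer Agilent arrays on fresh or once-stripped slides. Each ungapped eight-base word, pooled with its reverse complement, received an E-score from the Universal PBM Analysis Suite.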
For ACTTTACG, the “PBM E-score” value worked out at 0.176.

In the case of GATAGAGC, the “PBM E-score” value is -0.213.

Take ACTTCGGG: the “PBM E-score” value stood at 0.0895.

For the sequence CTGTCTTC, the “PBM E-score” value was 0.00215.

In the case of CAAAGCAC, the “PBM E-score” value is -0.179.

On to AAAGTCCC, for which the “PBM E-score” value was -0.0568.

With GGGGATCA, the “PBM E-score” value is -0.0949.

Take CGGCACGC: the “PBM E-score” value worked out at 0.0434.

Turning to TAGCGGAA, the “PBM E-score” value came out at 0.145.

On to ACAGCTAG, for which the “PBM E-score” value is 0.0504.

With ATCCACTG, the “PBM E-score” value was 0.0833.

Consider ACCTTGCT, for which the “PBM E-score” value turned out to be 0.00541.

With ATATGGAT, the “PBM E-score” value came to 0.0997.

With TTCAACAA, the “PBM E-score” value was -0.0695.

With CCAACTAG, the “PBM E-score” value turned out to be 0.168.

Regarding GCCGAACA, the “PBM E-score” value was -0.163.

Regarding CATGGCAA, the “PBM E-score” value is -0.0906.

In the case of AACCTGAA, the “PBM E-score” value came out at 0.0694.

In the case of TGCTGTAA, the “PBM E-score” value was -0.168.

Regarding GGGCTTGA, the “PBM E-score” value was -0.304.

Take CCAATTGC: the “PBM E-score” value is -0.0718.

With ACACAGGG, the “PBM E-score” value was found to be 0.0841.

As to AAGTAGAC, the “PBM E-score” value was -0.0352.

Turning to CCCGAATA, the “PBM E-score” value came out at 0.334.

On to AAATTATT, for which the “PBM E-score” value came to 0.15.

For ATAAGGGG, the “PBM E-score” value turned out to be 0.049.

In the case of ACTTATCA, the “PBM E-score” value stood at 0.181.

Take TCTATCCA: the “PBM E-score” value was -0.0724.

For the sequence AGTTGTCA, the “PBM E-score” value amounted to 0.147.

TAGACACA: the “PBM E-score” value was -0.184.

As to ATACTTAC, the “PBM E-score” value was -0.113.

For GAATCAAA, the “PBM E-score” value stood at 0.0321.

As to CGATGCAG, the “PBM E-score” value is -0.0163.

Turning to ACTTCCTG, the “PBM E-score” value is 0.319.

In the case of GCCTCAAC, the “PBM E-score” value was -0.219.

With TAATGCCA, the “PBM E-score” value came out at 0.0406.

On to CGGAACAC, for which the “PBM E-score” value is -0.0329.

With ATACGCGC, the “PBM E-score” value came to 0.0636.

On to AGTCGTTG, for which the “PBM E-score” value is -0.0345.

Turning to CAGAGGGA, the “PBM E-score” value is -0.186.

On to ATGTCGCA, for which the “PBM E-score” value was -0.031.

For the sequence GCGATATA, the “PBM E-score” value worked out at 0.0571.

For AAGAAGAA, the “PBM E-score” value came to 0.303.

For the sequence AGCTATTG, the “PBM E-score” value was 0.104.

In the case of CAGGGGGG, the “PBM E-score” value was -0.429.

AGGTGTTC: the “PBM E-score” value was -0.0887.

On to CCTACCGC, for which the “PBM E-score” value was -0.072.

Consider GCGGCGGA, for which the “PBM E-score” value came to 0.0513.

CCTTATGC: the “PBM E-score” value is -0.063.

Consider GAGCTATC, for which the “PBM E-score” value is -0.167.

On to ATGACTGG, for which the “PBM E-score” value is -0.129.

In the case of CCGTCCCG, the “PBM E-score” value was -0.166.

Regarding CTAGGAAA, the “PBM E-score” value is -0.124.

Take CCGGCAAC: the “PBM E-score” value is 0.318.

For CAAGTAGA, the “PBM E-score” value came out at 0.124.

As for AGGGACGA, the “PBM E-score” value was -0.0975.

As to TGCATTAA, the “PBM E-score” value is -0.0869.

Turning to TCTTACCA, the “PBM E-score” value amounted to 0.0792.

On to AAAATGGC, for which the “PBM E-score” value was found to be 0.127.

For the sequence CACAGTTC, the “PBM E-score” value was -0.103.

On to CACTTTCG, for which the “PBM E-score” value stood at 0.152.

Turning to CATAGCGA, the “PBM E-score” value is -0.163.

Take CGTCACCC: the “PBM E-score” value is 0.0296.

Take AGGTGGGG: the “PBM E-score” value is 0.198.

For GTCCCTGA, the “PBM E-score” value was determined as 0.0914.

Take GAGATGGC: the “PBM E-score” value was 0.0716.

For the sequence GTCCAGAA, the “PBM E-score” value stood at 0.0699.

Consider ATATAGAA, for which the “PBM E-score” value came to 0.202.

Turning to GTAGACTA, the “PBM E-score” value was -0.235.

With AGGGTCAG, the “PBM E-score” value was -0.235.

Consider AGACAGAC, for which the “PBM E-score” value was 0.0896.

As to CTCAACTA, the “PBM E-score” value was determined as 0.0318.

Regarding AATCCCTA, the “PBM E-score” value is 0.0379.

As for ACTATCCT, the “PBM E-score” value is -0.0391.

Turning to AGGGCTAG, the “PBM E-score” value was -0.265.

As to AGCCTGGA, the “PBM E-score” value was -0.00361.

Consider GAACGAAC, for which the “PBM E-score” value was -0.107.

On to AAAGTCCA, for which the “PBM E-score” value was -0.119.

Regarding CGGGCTAA, the “PBM E-score” value was -0.214.

On to ACCCCGAC, for which the “PBM E-score” value is -0.0913.

Consider ACTTACCA, for which the “PBM E-score” value was -0.0264.

For the sequence CCTTGGGA, the “PBM E-score” value is -0.201.

TAATAGAA: the “PBM E-score” value came out at 0.11.

As for AGTCGAGG, the “PBM E-score” value was -0.297.

Turning to ATTCTCAA, the “PBM E-score” value was determined as 0.184.

Take GCAGTTCC: the “PBM E-score” value amounted to 0.0555.

As for AGTACATA, the “PBM E-score” value was -0.0364.

In the case of AGTCTAAG, the “PBM E-score” value is -0.0661.

Turning to CAGCTTGA, the “PBM E-score” value was -0.0109.

As for ACCATATC, the “PBM E-score” value is 0.0125.

For ATATATGG, the “PBM E-score” value is -0.0169.

Regarding CGAGGGCG, the “PBM E-score” value was found to be 0.0687.

With ACACAGAC, the “PBM E-score” value was -0.24.

Consider AGGTTAAA, for which the “PBM E-score” value was -0.00988.

Turning to AATTAGAG, the “PBM E-score” value amounted to 0.0412.

For the sequence CTCACTAC, the “PBM E-score” value was -0.0719.

In the case of AAAAAGCT, the “PBM E-score” value is -0.183.

CTAGTTGA: the “PBM E-score” value is 0.0522.

In the case of CCCTGTAA, the “PBM E-score” value amounted to 0.308.

In the case of ACTCAGTG, the “PBM E-score” value was -0.101.

With CCTCGTCA, the “PBM E-score” value is -0.0532.

On to ACGATTCA, for which the “PBM E-score” value came out at 0.0801.

For AGGGTAAT, the “PBM E-score” value is 0.108.

For AATGCATC, the “PBM E-score” value was -0.213.

Regarding AACGGGCA, the “PBM E-score” value was determined as 0.117.

As to AGAATATA, the “PBM E-score” value was -0.295.

As for AAATGCTA, the “PBM E-score” value is 0.0969.

With TATGCAAA, the “PBM E-score” value stood at 0.00787.

As to GGCCGACC, the “PBM E-score” value was -0.138.
